The whole screen tested about 310,000 compounds, of which about 2,200 (0.71%) showed an effect of 50% or more. The effect is printed as a negative number. This is one part of the list.
target: human ether-à-go-go-related gene (hERG) potassium channel (human, UniProt Q12809); experiment: primary screen, population patch clamp on CHO cells stably expressing hERG
Sequence (Q12809 whole entry, looked up): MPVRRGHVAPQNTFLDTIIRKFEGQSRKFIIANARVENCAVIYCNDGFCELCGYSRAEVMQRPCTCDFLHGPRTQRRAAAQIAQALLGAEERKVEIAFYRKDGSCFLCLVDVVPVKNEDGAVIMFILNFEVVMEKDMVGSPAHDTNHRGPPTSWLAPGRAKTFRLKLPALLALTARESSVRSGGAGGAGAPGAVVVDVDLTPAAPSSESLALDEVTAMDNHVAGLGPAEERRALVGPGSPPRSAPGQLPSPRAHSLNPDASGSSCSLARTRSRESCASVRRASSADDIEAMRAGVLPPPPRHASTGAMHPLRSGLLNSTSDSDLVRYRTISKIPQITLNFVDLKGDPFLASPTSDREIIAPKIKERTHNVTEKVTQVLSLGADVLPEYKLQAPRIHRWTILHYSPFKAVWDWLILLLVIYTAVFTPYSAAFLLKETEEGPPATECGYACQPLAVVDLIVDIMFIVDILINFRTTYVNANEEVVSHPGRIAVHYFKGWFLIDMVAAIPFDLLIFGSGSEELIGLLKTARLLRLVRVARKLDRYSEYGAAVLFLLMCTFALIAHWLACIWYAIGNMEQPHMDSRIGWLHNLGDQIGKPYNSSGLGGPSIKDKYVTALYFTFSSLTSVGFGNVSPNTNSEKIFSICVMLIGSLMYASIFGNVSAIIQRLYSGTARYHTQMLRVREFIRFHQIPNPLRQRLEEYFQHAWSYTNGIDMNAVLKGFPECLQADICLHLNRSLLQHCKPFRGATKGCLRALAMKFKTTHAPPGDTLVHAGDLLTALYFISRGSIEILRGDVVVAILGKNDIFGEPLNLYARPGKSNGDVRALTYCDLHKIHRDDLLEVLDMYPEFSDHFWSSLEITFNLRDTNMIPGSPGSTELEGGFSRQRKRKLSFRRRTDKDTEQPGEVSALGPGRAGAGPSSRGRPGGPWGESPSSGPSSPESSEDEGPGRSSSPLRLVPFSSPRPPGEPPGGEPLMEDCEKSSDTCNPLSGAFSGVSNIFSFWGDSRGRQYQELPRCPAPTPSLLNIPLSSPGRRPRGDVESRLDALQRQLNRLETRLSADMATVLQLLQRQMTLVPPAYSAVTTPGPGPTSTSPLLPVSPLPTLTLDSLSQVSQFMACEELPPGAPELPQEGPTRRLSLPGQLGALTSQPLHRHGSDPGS

SMILES	hERG current change (%, negative = inhibition) at 1uM
CC(Cl)C(=O)NNC(=O)CNS(=O)(=O)c1ccccc1 (centres unmarked)	-0.449%
O=C1[C@H]2[C@H](C=CC[C@H]2C(=O)N2CCN(c3ccccc3)CC2)CCN1Cc1ccccc1	9.8%
CCN1C(=O)/C(=C2/Sc3ccc(OC)cc3N2C)SC1=Nc1ccc(OC)cc1	17%
CN(C)S(=O)(=O)c1ccc(Cl)c(NC(=O)COC(=O)/C=C/c2ccc3ccccc3n2)c1	4.83%
CCOP(=O)(OCC)c1nc(-c2cccc3ccccc23)oc1NCCc1ccc(OC)cc1	8.58%
COC(=O)CN1C(=O)[C@@H]2[C@H](C1=O)[C@@H]1CC(C(=O)OC)=C[C@@H](C(=O)OC)[C@@H]3C1=C(C(=O)[C@]3(C)NC(=O)c1ccccc1)[C@@H]2C	14.9%
CC(=O)c1cccc(CN2CCN(Cc3ccc(F)cc3)C(CCO)C2)c1 (centres unmarked)	3.3%
CCCNC(=O)c1onc(CSc2nc3ccccc3[nH]2)c1C(=O)NCCC	-1.04%
Cc1cccc(N2C(=O)CC(N3CCN(c4cccc(C(F)(F)F)c4)CC3)C2=O)c1 (centres unmarked)	10.5%
O=C(Nc1ccc(C(=O)N2CCCCC2)cc1)C1=CSCCO1	16%
CCN(CC)S(=O)(=O)c1ccc(Cl)c(C(=O)NCc2ccco2)c1	7.88%
O=C(C1=C[C@@H](C2CCCCC2)C[C@@H](OCc2ccc(CO)cc2)O1)N1CCOCC1	12%
COCCn1c(N2CCN(c3ccc(OC)cc3)CC2)nc2c1c(=O)[nH]c(=O)n2C	-0.883%
CSc1nsc(SC)c1C(=O)NC(=O)Nc1cccnc1	12.4%
C/C(=N\Nc1ccc([N+](=O)[O-])cc1)c1ccc(O)cc1	8.33%
COc1cc(NC(=S)NCCO)c(OC)cc1Cl	7.87%
CCCn1c(N)c(C(=O)CSc2nc3ccccc3c(=O)n2Cc2ccccc2)c(=O)[nH]c1=O	6.89%
O=C(CN1CCCCC1)N/N=C/c1cc2ccccc2nc1Cl	5.11%
O=C1CC(Sc2nnc(-c3ccccc3O)o2)C(=O)N1c1ccccc1 (centres unmarked)	7.68%
COc1ccc(S(=O)(=O)NC2CC(=O)N(c3cccc(F)c3)C2)cc1OC (centres unmarked)	17.5%
CC(C)Cc1cc(C(=O)Nc2sc3c(c2C#N)CCCC3)no1	-5.51%
Cc1nnc(SCCn2c(N3CCCCC3)nc3c2c(=O)n(C)c(=O)n3C)s1	14%
COc1ccc([C@H]2CC(=O)C=C(c3ccc(F)cc3OCc3ccccc3)C2)cc1	11.4%

SMILES	hERG current change (%, negative = inhibition) at 1uM
COc1cccc([C@@H]2CC=C(C(=O)O)[C@H](c3ccccc3)N2S(=O)(=O)c2ccc(C)cc2)c1	4.94%
Nc1cccc(Oc2cnccn2)c1	18%
COc1cc(OC)c(NC(=O)C2CCCN2C(=O)OCc2ccccc2)cc1Cl (centres unmarked)	11.5%
C=CCn1c(SCCC#N)nnc1-c1ccncc1	2.7%
CCCCn1c(=O)c2ccccc2n2c(=S)[nH]nc12	12%
CCC(C)C(=O)Nc1cc(OC)c(OC)cc1C(=O)O (centres unmarked)	1.26%
CCCNC(=O)N1CCN(Cc2ccco2)CC1	15%
COc1ccc(C2C(C(C)=O)=C(O)C(=O)N2c2ccc(O)cc2)cc1 (centres unmarked)	16%
Cc1cccc(NC(=O)C2C3C=CC(O3)C2C(=O)O)c1C (centres unmarked)	12.8%
O=C(Nc1cccnc1)c1cc(-c2ccc(F)cc2)on1	11.4%
CN(C)CCOc1ncnc2c1oc1ccccc12	-3.75%
CC(=O)Nc1cccc(OCC(=O)NC(C)c2ccc3ccccc3c2)c1 (centres unmarked)	15.5%
CCCCN(C(=O)c1ccc(S(=O)(=O)N(C)C)cc1)c1nc2ccccc2s1	9.87%
Cc1ccc(Sc2c([N+](=O)[O-])c(=O)n(C)c3ccccc23)cc1	13.9%
Cn1cccc1Cc1nnc(SCC(=O)Nc2cccc(F)c2)n1CCc1ccccc1	5.02%
CC(=O)Nc1ccc(S(=O)(=O)NCc2ccc(C)n2C)cc1	12.2%
CC1(C)CC(=O)C2=C(C1)Nc1ccccc1NC2c1ccc([N+](=O)[O-])cc1 (centres unmarked)	0.33%
Cc1cc(C)n2c(Br)c(CN3CC4CC(C3)c3cccc(=O)n3C4)nc2n1 (centres unmarked)	9.14%
COc1ccc(OCCCN2CCc3ccccc3C2)cc1.Cl	-0.308%
O=S1(=O)C=CC(N2CCOCC2)C1 (centres unmarked)	-8.11%
Cc1cc(C)c(NC(=O)CSc2nc3ncc(Br)cc3[nH]2)c(Cl)c1	14.6%
Br.O=C(CN1C2=NCCCN2c2ccccc21)c1cccc(Br)c1	-28.6%
CCN1CCCC1CNC(=O)C(=O)NCCc1ccc(OC)c(OC)c1 (centres unmarked)	17.4%

SMILES	hERG current change (%, negative = inhibition) at 1uM
Cc1c(Cl)cccc1NC(=O)CSc1ncnc2c1cnn2CCc1ccccc1	13.2%
O=S(=O)(Nc1ccccn1)c1ccc(Br)cc1	4.98%
Cc1ccc(S(=O)(=O)N2CCC(C(=O)NCc3ccncc3)CC2)cc1	2.01%
CN1CCN(c2ccc(S(=O)(=O)N3CCCCC3)cc2NC(=O)COc2ccc(F)cc2)CC1	-18.2%
O=C(O)Cc1sc(Nc2ccc(F)cc2)nc1-c1cccs1	8.55%
Cc1nn(C)c(C)c1N=Cc1c(O)ccc2ccccc12	15.2%
CC1CCCCN1CC(=O)Nc1sccc1C#N (centres unmarked)	-7.59%
COc1ccccc1CNS(=O)(=O)c1ccc(Cl)s1	12.4%
CCOC(=O)N1CCN(c2cccc(C)c2C)CC1	12.3%
Cc1cc(-c2csc(NC(=O)c3ccc(=O)[nH]c3)n2)c(C)n1Cc1ccccc1	12.6%
CNC(=O)/C(C#N)=C/c1ccc(-c2ccc(Cl)cc2)o1	20.7%
Cc1ccccc1C(=O)N1CCN(c2ccc(NC(=O)c3ccc4c(c3)OCO4)cc2)CC1	-4.49%
CCCCC(=O)Oc1cc(C)[nH]c(=O)c1[N+](=O)[O-]	11.4%
COc1cccc(NC(=O)CN(C)C(=O)c2oc3c(ccc4ccccc43)c2C)c1	-3.42%
CCN(CC(=O)Nc1c(C(=O)OC)[nH]c2ccccc12)c1ccc2c(c1)OCO2	12.1%
COCCNC(=O)/C(C#N)=C/c1ccc(C(=O)O)cc1	18.9%
Oc1c(Br)cc(Br)c(/C=N/n2c(-c3ccccc3)n[nH]c2=S)c1Br	13.6%
CCOC(=O)CSc1nc(C)[nH]c1[N+](=O)[O-]	8.39%
CCCNC(=O)C(=O)NCC1CCCN1CC (centres unmarked)	10%
Cc1ccc(C(=O)N/C(=C\c2cn(C)c3ccccc23)C(=O)NCCCn2ccnc2)cc1	13.5%
O=C(Cc1n[nH]c(=O)c2ccccc12)OCc1c(Cl)cccc1Cl	14.5%
CNC(=O)c1c(Br)cnn1-c1ccc(C)cc1	14.1%
Cc1ccc(Cn2c(C)cc3c(c2=O)C(c2cccs2)C(C#N)=C(N)O3)cc1 (centres unmarked)	11.8%

SMILES	hERG current change (%, negative = inhibition) at 1uM
CCN1CCN(S(=O)(=O)c2ccc3c(c2)NC(=O)CS3)CC1	25.4%
COCCn1c(C)c(C)c(S(=O)(=O)c2ccccc2)c1N	13.2%
N=C1SCC(=O)N1/N=C/c1ccccc1	13%
CCOC(=O)N1CCN(C(=O)CSc2nnc(-c3c[nH]c4ccccc34)n2CCOC)CC1	14.3%
CCOC(=O)c1ccccc1NC(=O)Cn1cnc2c(nnn2-c2ccc(C)cc2)c1=O	10.7%
CCOC(=O)C(NCc1ccccc1OC)(NC(C)=O)C(F)(F)F (centres unmarked)	18.2%
COc1ccc(Nc2nc(-c3ccccc3)c3ccccc3n2)cc1	2.9%
CCCCNC(=O)Oc1cccc(N2CCCC2=O)c1	10.4%
CC(=O)c1ccc(N=Cc2c(O)n(-c3cc(Cl)ccc3N3CCOCC3)c(=O)c3ccccc23)cc1	13%
O=C(C1CCCN(S(=O)(=O)c2ccc(F)cc2)C1)N(Cc1cccs1)C1CC1 (centres unmarked)	5.65%
C/C(=N\O)C1(C)N(O)C(C)(C)C(c2ccc(Br)cc2)=[N+]1[O-] (centres unmarked)	7.33%
Cc1c(-c2ccc(F)cc2)nc(N)c(C#N)c1-c1cccs1	-1.93%
COc1ccc(CCC(=O)NNC(=O)Nc2ccc(OC)c(OC)c2)cc1	6.62%
COc1ccccc1/C=C/C(=O)NC(=S)Nc1ccccn1	18.9%
CCOC(=O)c1[nH]c2ccccc2c1NC(=O)CC(C)(C)C	0.705%
CCOc1cc(CNn2nnnc2N)ccc1OCC(=O)NC(C)(C)C	5.71%
COC(=O)c1ccc(N(CC(=O)NC2CCCC2)C(=O)CNC(=O)c2cccs2)cc1	9.62%
O=C(Nc1ccc2[nH]ccc2c1)c1ccc(F)cc1	11%
CCCc1cc(=O)[nH]c(SCCOc2ccc(Cl)cc2)n1	11.9%
O=C1CN(C(=O)COC(=O)CCCOc2ccccc2)c2ccccc2N1	1.08%

Reference: publication PMC4336329 (PLoS ONE, 2015)
